Laboratory results from the supplement of paper PMC10037445.
The full ranking holds about 2,900 compounds; the median of “IRF Lucia reporter activity, fold change vs agonist alone” is about 0.9, and the highest 2% start at about 2.8. This is one part of the list.

Experiments:
RAW-Dual [1] = assay: IRF Lucia reporter activity, fold change vs agonist alone; cytotoxicity flag (confluency mask): not cytotoxic; higher = enhanced IRF activity
Method in brief: (§1)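 Library stock was pin-tooled at 50 nL into 384-well plates of RAW-Dual macrophages (50,000 cells/well, DMEM), followed 1 h later by a PRR agonist, and the cells were kept at 37 °C, 5% CO2. Supernatant collected after 20 hours was read for IRF by QuantiLuc luminescence and for NF-κB by QuantiBlue absorbance at 620 nm. Reporter activity is fold change over agonist-alone wells, and a well counted as cytotoxic when its IncuCyte confluency was below 70% of agonist controls in both mask sets.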

RAW-Dual [2] = assay: IRF Lucia reporter activity, fold change vs agonist alone; higher = enhanced IRF activity; details: library stock concentration (final ~1000-fold dilution): 10 mM; cytotoxicity flag (confluency mask): not cytotoxic; agonist: MPLA (TLR4) […]
Method in brief: as §1

RAW-Dual [3] = assay: IRF Lucia reporter activity, fold change vs agonist alone; cytotoxicity flag (confluency mask): cytotoxic (confluency <70% of control); higher = enhanced IRF activity
Method in brief: as §1

[4] = agonist: 3'3'-cGAMP (STING) 10 ug/mL

## CCCCCCOC(=O)c1cc(=O)c(O)c2c(O)c(O)c(OC)cc2c1 (library stock concentration (final ~1000-fold dilution): 1 mM)
RAW-Dual [1]; [4]
  IRF Lucia reporter activity: 0.0413
RAW-Dual [1]; agonist: LPS (TLR4) 0.1 ug/mL
  IRF Lucia reporter activity: 0.872

## CN1CCC(Nc2nc(Nc3ccc(Oc4ccccc4)cc3)c3c(=O)[nH]cc(Br)c3n2)CC1
RAW-Dual [2]
  IRF Lucia reporter activity: 1.03

## CN1CCC(Nc2nc(Nc3ccc(Oc4ccccc4)cc3)c3c(=O)[nH]cc(Br)c3n2)CC1 (library stock concentration (final ~1000-fold dilution): 10 mM)
RAW-Dual [1]; [4]
  IRF Lucia reporter activity: 0.975
RAW-Dual [1]; agonist: LPS (TLR4) 0.1 ug/mL
  IRF Lucia reporter activity: 1.02

## COC1/C=C/OC2(C)Oc3c(C)c(O)c4c(O)c(c5c(nc6cc(C)ccn65)c4c3C2=O)NC(=O)/C(C)=C\C=C\C(C)C(O)C(C)C(O)C(C)C(OC(C)=O)C1C (stereo not given) (library stock concentration (final ~1000-fold dilution): 10 mM)
RAW-Dual [1]; [4]
  IRF Lucia reporter activity: 1.14
RAW-Dual [1]; agonist: LPS (TLR4) 0.1 ug/mL
  IRF Lucia reporter activity: 1.07

## COC1/C=C/OC2(C)Oc3c(C)c(O)c4c(O)c(c5c(nc6cc(C)ccn65)c4c3C2=O)NC(=O)/C(C)=C\C=C\C(C)C(O)C(C)C(O)C(C)C(OC(C)=O)C1C (stereo not given)
RAW-Dual [2]
  IRF Lucia reporter activity: 0.796

## Cc1[nH]c(=O)c(C#N)cc1-c1ccc2nccn2c1 (library stock concentration (final ~1000-fold dilution): 10 mM)
RAW-Dual [1]; [4]
  IRF Lucia reporter activity: 0.909
RAW-Dual [1]; agonist: LPS (TLR4) 0.1 ug/mL
  IRF Lucia reporter activity: 0.892

## Cc1[nH]c(=O)c(C#N)cc1-c1ccc2nccn2c1
RAW-Dual [2]
  IRF Lucia reporter activity: 1

## NC(=O)c1cccc(-c2cccc(OC(=O)NC3CCCCC3)c2)c1 (library stock concentration (final ~1000-fold dilution): 10 mM)
RAW-Dual [1]; [4]
  IRF Lucia reporter activity: 0.492
RAW-Dual [1]; agonist: LPS (TLR4) 0.1 ug/mL
  IRF Lucia reporter activity: 0.306

## NC(=O)c1cccc(-c2cccc(OC(=O)NC3CCCCC3)c2)c1
RAW-Dual [2]
  IRF Lucia reporter activity: 0.294

## NC1CONC1=O (stereo not given) (library stock concentration (final ~1000-fold dilution): 10 mM)
RAW-Dual [1]; [4]
  IRF Lucia reporter activity: 1.05
RAW-Dual [1]; agonist: LPS (TLR4) 0.1 ug/mL
  IRF Lucia reporter activity: 1.33

## NC1CONC1=O (stereo not given)
RAW-Dual [2]
  IRF Lucia reporter activity: 1.09

## COc1c(-c2ccc3cc(NS(C)(=O)=O)ccc3c2)cc(-n2ccc(=O)[nH]c2=O)cc1C(C)(C)C
RAW-Dual [2]
  IRF Lucia reporter activity: 1.75

## COc1c(-c2ccc3cc(NS(C)(=O)=O)ccc3c2)cc(-n2ccc(=O)[nH]c2=O)cc1C(C)(C)C (library stock concentration (final ~1000-fold dilution): 10 mM)
RAW-Dual [1]; [4]
  IRF Lucia reporter activity: 1.05
RAW-Dual [1]; agonist: LPS (TLR4) 0.1 ug/mL
  IRF Lucia reporter activity: 2.59

## CCN(CC)CCNC(=O)c1c(C)[nH]c(/C=C2/C(=O)Nc3ccc(-c4csc(-c5ccccc5)n4)cc32)c1C (library stock concentration (final ~1000-fold dilution): 10 mM)
RAW-Dual [3]; [4]
  IRF Lucia reporter activity: 0.0953
RAW-Dual [3]; agonist: LPS (TLR4) 0.1 ug/mL
  IRF Lucia reporter activity: 0.717

## Cc1cc(Nc2nc(NC(C)c3ccc(F)cc3)c(C#N)cc2F)n[nH]1 (stereo not given) (library stock concentration (final ~1000-fold dilution): 10 mM)
RAW-Dual [1]; [4]
  IRF Lucia reporter activity: 1.02
RAW-Dual [1]; agonist: LPS (TLR4) 0.1 ug/mL
  IRF Lucia reporter activity: 0.791

## Cc1cc(Nc2nc(NC(C)c3ccc(F)cc3)c(C#N)cc2F)n[nH]1 (stereo not given)
RAW-Dual [2]
  IRF Lucia reporter activity: 1.1
